Measurements taken from the supplement of paper PMC4604168 (melanoma cell lines).
The list shows a part of the results. Many values rest on one well or one pass, so single values are uncertain.

The compounds below were run on WM3526 (assay: cell count relative to DMSO control; melanoma cells; higher = more viable cells). Conditions: library dose: low library concentration; 72 h.
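Also: cell number obtained by counting DAPI-stained nuclei in high-throughput microscope images with image analysis software, screen run in 1,536-well plates.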

| Structure (SMILES) | cell count |
| --- | --- |
| N#CC[C@H](C1CCCC1)n1cc(-c2ncnc3[nH]ccc23)cn1 [ruxolitinib] + CN(NC(=O)CC(=O)NN(C)C(=S)c1ccccc1)C(=S)c1ccccc1 [STA4783] (first compound 1 µM, partner dose 0.006 µM) | 127% |
| CC[C@]1(O)C[C@H]2CN(CCc3c([nH]c4ccccc34)[C@@](C(=O)OC)(c3cc4c(cc3OC)N(C=O)[C@H]3[C@@](O)(C(=O)OC)[C@H](OC(C)=O)[C@]5(CC)C=CCN6CC[C@]43[C@@H]65)C2)C1 [vincristine] + COC(=O)c1sccc1S(=O)(=O)Nc1ccc(Nc2ccccc2)cc1OC [GSK0660] (first compound 0.0001 µM, partner dose 1 µM) | 58.5% |
| Cc1cc(Nc2cc(N3CCN(C)CC3)nc(Sc3ccc(NC(=O)C4CC4)cc3)n2)n[nH]1 [Tozasertib] + CC(C)CCN1c2nc(Nc3cc(F)c(O)c(F)c3)ncc2N(C)C(=O)C1C [BID1870] (first compound 0.006 µM, partner dose 0.2 µM) | 88.2% |
| Cc1cc(Nc2cc(N3CCN(C)CC3)nc(Sc3ccc(NC(=O)C4CC4)cc3)n2)n[nH]1 [Tozasertib] + Cc1cn(-c2cc(NC(=O)c3ccc(C)c(Nc4nccc(-c5cccnc5)n4)c3)cc(C(F)(F)F)c2)cn1 [nilotinib] (first compound 0.006 µM, partner dose 0.2 µM) | 105% |
| N#CC[C@H](C1CCCC1)n1cc(-c2ncnc3[nH]ccc23)cn1 [ruxolitinib] + O=C(Nc1ccccc1)c1cc([N+](=O)[O-])ccc1Cl [GW9662] (first compound 1 µM, partner dose 2 µM) | 86.7% |
| CC[C@]1(O)C[C@H]2CN(CCc3c([nH]c4ccccc34)[C@@](C(=O)OC)(c3cc4c(cc3OC)N(C=O)[C@H]3[C@@](O)(C(=O)OC)[C@H](OC(C)=O)[C@]5(CC)C=CCN6CC[C@]43[C@@H]65)C2)C1 [vincristine] + CC(C)CCN1c2nc(Nc3cc(F)c(O)c(F)c3)ncc2N(C)C(=O)C1C [BID1870] (first compound 0.0001 µM, partner dose 0.2 µM) | 39.3% |
| Cc1cc(Nc2cc(N3CCN(C)CC3)nc(Sc3ccc(NC(=O)C4CC4)cc3)n2)n[nH]1 [Tozasertib] + CCCCCCCCCCCCCCCCCCOP(=O)([O-])OC1CC[N+](C)(C)CC1 [Perifosine] (first compound 0.006 µM, partner dose 0.4 µM) | 86% |
| Cc1cc(Nc2cc(N3CCN(C)CC3)nc(Sc3ccc(NC(=O)C4CC4)cc3)n2)n[nH]1 [Tozasertib] + Cc1cc(N2CCOCC2)cc2[nH]c(-c3c(NC[C@@H](O)c4cccc(Cl)c4)cc[nH]c3=O)nc12 [BMS536924] (first compound 0.006 µM, partner dose 0.2 µM) | 90.7% |
| CC[C@]1(O)C[C@H]2CN(CCc3c([nH]c4ccccc34)[C@@](C(=O)OC)(c3cc4c(cc3OC)N(C=O)[C@H]3[C@@](O)(C(=O)OC)[C@H](OC(C)=O)[C@]5(CC)C=CCN6CC[C@]43[C@@H]65)C2)C1 [vincristine] + O=C(O)c1ccc2c(c1)nc(Nc1cccc(Cl)c1)c1ccncc12 [CX4945] (first compound 0.0001 µM, partner dose 0.4 µM) | 84.4% |
